Data from PubChem BioAssay AID256 (DTP/NCI, 2004).
Values joined by “and” are separate entries in the source; they are usually repeats but may differ in a detail not shown here. Equal values may be shown once. This continues a long series; more values of the same kind are listed elsewhere. Inconclusive results and toxic doses are left out.

Tested on: CD2F1 mice, L1210 leukemia ip, survival T/C
Experiment: NCI In Vivo Anticancer Drug Screen. Data for tumor model L1210 Leukemia (intraperitoneal) in CD2F1 (CDF1) mice
Settings: higher = longer survival
Procedure, shortened: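 Tumor-bearing mice (transplanted tumor) were split into treated and vehicle control groups, and the measured endpoint of each treated group was divided by that of its vehicle controls.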

## O=C1c2ccccc2C(=O)c2c(NCCNCCO)ccc(NCCNCCO)c21
endpoint: mean survival time, dose: 0.43 mg/kg/injection, schedule: Q01DX009 (ip), vehicle: Klucel (hydroxypropylcellulose) (HPC)
  T/C: 106 % of control
endpoint: mean survival time, dose: 0.87 mg/kg/injection, schedule: Q01DX009 (ip), vehicle: Klucel (hydroxypropylcellulose) (HPC)
  T/C: 122 % of control
endpoint: mean survival time, dose: 1.0 mg/kg/injection, schedule: Q01DX005 (iv), vehicle: saline
  T/C: 106 % of control
endpoint: mean survival time, dose: 2.0 mg/kg/injection, schedule: Q01DX005 (iv), vehicle: clinical formulation
  T/C: 105 % of control
endpoint: mean survival time, dose: 2.0 mg/kg/injection, schedule: Q01DX009 (ip), vehicle: acid diluted with saline
  T/C: 226 % of control
endpoint: mean survival time, dose: 3.5 mg/kg/injection, schedule: Q01DX009 (ip), vehicle: Klucel (hydroxypropylcellulose) (HPC)
  T/C: 117 % of control
endpoint: mean survival time, dose: 4.0 mg/kg/injection, schedule: Q01DX005 (iv), vehicle: saline
  T/C: 109 % of control and 112 % of control
endpoint: mean survival time, dose: 4.0 mg/kg/injection, schedule: Q01DX005 (oral), vehicle: acid diluted with saline
  T/C: 98 % of control and 101 % of control
endpoint: mean survival time, dose: 4.0 mg/kg/injection, schedule: Q01DX005 (oral), vehicle: saline
  T/C: 104 % of control
endpoint: mean survival time, dose: 4.0 mg/kg/injection, schedule: Q01DX009 (ip), vehicle: acid diluted with saline
  T/C: 151 % of control and 180 % of control
endpoint: mean survival time, dose: 4.0 mg/kg/injection, schedule: Q01DX009 (ip), vehicle: saline with Tween-80
  T/C: 207 % of control
endpoint: mean survival time, dose: 7.0 mg/kg/injection, schedule: Q01DX009 (ip), vehicle: Klucel (hydroxypropylcellulose) (HPC)
  T/C: 119 % of control
endpoint: mean survival time, dose: 8.0 mg/kg/injection, schedule: Q01DX005 (oral), vehicle: acid diluted with saline
  T/C: 101 % of control and 104 % of control
endpoint: mean survival time, dose: 8.0 mg/kg/injection, schedule: Q01DX009 (ip), vehicle: acid diluted with saline
  T/C: 228 % of control and 316 % of control
endpoint: mean survival time, dose: 8.0 mg/kg/injection, schedule: Q01DX009 (ip), vehicle: saline with Tween-80
  T/C: 270 % of control
endpoint: mean survival time, dose: 8.0 mg/kg/injection, schedule: Q04DX003 (iv), vehicle: saline
  T/C: 108 % of control
endpoint: mean survival time, dose: 11.7 mg/kg/injection, schedule: Q01DX001 (iv), vehicle: saline
  T/C: 108 % of control
endpoint: mean survival time, dose: 14.0 mg/kg/injection, schedule: Q01DX009 (ip), vehicle: Klucel (hydroxypropylcellulose) (HPC)
  T/C: 152 % of control
endpoint: mean survival time, dose: 16.0 mg/kg/injection, schedule: Q01DX005 (oral), vehicle: acid diluted with saline
  T/C: 108 % of control and 96 % of control and 98 % of control
endpoint: mean survival time, dose: 16.0 mg/kg/injection, schedule: Q01DX009 (ip), vehicle: acid diluted with saline
  T/C: 122 % of control and 365 % of control
endpoint: mean survival time, dose: 16.0 mg/kg/injection, schedule: Q04DX003 (ip), vehicle: water
  T/C: 105 % of control
endpoint: mean survival time, dose: 16.0 mg/kg/injection, schedule: Q04DX003 (iv), vehicle: saline
  T/C: 110 % of control
endpoint: mean survival time, dose: 19.4 mg/kg/injection, schedule: Q01DX001 (iv), vehicle: saline
  T/C: 105 % of control
endpoint: mean survival time, dose: 28.0 mg/kg/injection, schedule: Q01DX009 (ip), vehicle: Klucel (hydroxypropylcellulose) (HPC)
  T/C: 217 % of control
endpoint: mean survival time, dose: 32.0 mg/kg/injection, schedule: Q01DX005 (oral), vehicle: acid diluted with saline
  T/C: 101 % of control
endpoint: mean survival time, dose: 32.0 mg/kg/injection, schedule: Q01DX009 (ip), vehicle: saline with Tween-80
  T/C: 90 % of control
endpoint: mean survival time, dose: 32.0 mg/kg/injection, schedule: Q01DX009 (ip), vehicle: saline
  T/C: 107 % of control
endpoint: mean survival time, dose: 32.4 mg/kg/injection, schedule: Q01DX001 (iv), vehicle: saline
  T/C: 107 % of control
endpoint: mean survival time, dose: 64.0 mg/kg/injection, schedule: Q01DX005 (oral), vehicle: acid diluted with saline
  T/C: 89 % of control and 101 % of control
endpoint: mean survival time, dose: 64.0 mg/kg/injection, schedule: Q01DX005 (oral), vehicle: saline
  T/C: 104 % of control
endpoint: mean survival time, dose: 95.0 mg/kg/injection, schedule: Q01DX009 (ip), vehicle: Klucel (hydroxypropylcellulose) (HPC)
  T/C: 86 % of control
endpoint: mean survival time, dose: 128.0 mg/kg/injection, schedule: Q01DX005 (oral), vehicle: acid diluted with saline
  T/C: 101 % of control and 110 % of control
endpoint: mean survival time, dose: 128.0 mg/kg/injection, schedule: Q01DX005 (oral), vehicle: saline
  T/C: 109 % of control
endpoint: median survival time, dose: 0.25 mg/kg/injection, schedule: Q01DX009 (ip), vehicle: clinical formulation
  T/C: 112 % of control
endpoint: median survival time, dose: 1.0 mg/kg/injection, schedule: Q01DX009 (sc), vehicle: saline
  T/C: 102 % of control
endpoint: median survival time, dose: 2.0 mg/kg/injection, schedule: Q01DX009 (ip), vehicle: saline
  T/C: 158 % of control
endpoint: median survival time, dose: 2.0 mg/kg/injection, schedule: Q01DX009 (sc), vehicle: saline
  T/C: 105 % of control
endpoint: median survival time, dose: 4.0 mg/kg/injection, schedule: Q01DX005 (iv), vehicle: water
  T/C: 110 % of control
endpoint: median survival time, dose: 4.0 mg/kg/injection, schedule: Q01DX009 (ip), vehicle: saline
  T/C: 160 % of control
endpoint: median survival time, dose: 4.0 mg/kg/injection, schedule: Q01DX009 (oral), vehicle: saline
  T/C: 115 % of control
endpoint: median survival time, dose: 4.0 mg/kg/injection, schedule: Q01DX009 (sc), vehicle: Klucel (hydroxypropylcellulose) (HPC)
  T/C: 119 % of control and 123 % of control
endpoint: median survival time, dose: 4.0 mg/kg/injection, schedule: Q01DX009 (sc), vehicle: saline
  T/C: 103 % of control
endpoint: median survival time, dose: 8.0 mg/kg/injection, schedule: Q01DX005 (oral), vehicle: Klucel (hydroxypropylcellulose) (HPC)
  T/C: 106 % of control and 102 % of control
endpoint: median survival time, dose: 8.0 mg/kg/injection, schedule: Q01DX009 (ip), vehicle: Klucel (hydroxypropylcellulose) (HPC)
  T/C: 177 % of control and 370 % of control
endpoint: median survival time, dose: 8.0 mg/kg/injection, schedule: Q01DX009 (ip), vehicle: saline
  T/C: 200 % of control
endpoint: median survival time, dose: 8.0 mg/kg/injection, schedule: Q01DX009 (oral), vehicle: saline
  T/C: 115 % of control
endpoint: median survival time, dose: 8.0 mg/kg/injection, schedule: Q01DX009 (sc), vehicle: saline
  T/C: 105 % of control
endpoint: median survival time, dose: 16.0 mg/kg/injection, schedule: Q01DX005 (oral), vehicle: Klucel (hydroxypropylcellulose) (HPC)
  T/C: 100 % of control
endpoint: median survival time, dose: 16.0 mg/kg/injection, schedule: Q01DX009 (ip), vehicle: Klucel (hydroxypropylcellulose) (HPC)
  T/C: 174 % of control and 370 % of control
endpoint: median survival time, dose: 16.0 mg/kg/injection, schedule: Q01DX009 (ip), vehicle: saline
  T/C: 191 % of control
endpoint: median survival time, dose: 16.0 mg/kg/injection, schedule: Q01DX009 (oral), vehicle: saline
  T/C: 105 % of control
endpoint: median survival time, dose: 16.0 mg/kg/injection, schedule: Q01DX009 (sc), vehicle: Klucel (hydroxypropylcellulose) (HPC)
  T/C: 186 % of control
endpoint: median survival time, dose: 32.0 mg/kg/injection, schedule: Q01DX005 (oral), vehicle: Klucel (hydroxypropylcellulose) (HPC)
  T/C: 100 % of control
endpoint: median survival time, dose: 32.0 mg/kg/injection, schedule: Q01DX009 (ip), vehicle: Klucel (hydroxypropylcellulose) (HPC)
  T/C: 113 % of control and 209 % of control
endpoint: median survival time, dose: 32.0 mg/kg/injection, schedule: Q01DX009 (oral), vehicle: saline
  T/C: 105 % of control
endpoint: median survival time, dose: 64.0 mg/kg/injection, schedule: Q01DX005 (oral), vehicle: Klucel (hydroxypropylcellulose) (HPC)
  T/C: 104 % of control
endpoint: median survival time, dose: 64.0 mg/kg/injection, schedule: Q01DX009 (ip), vehicle: saline
  T/C: 97 % of control
endpoint: median survival time, dose: 64.0 mg/kg/injection, schedule: Q01DX009 (oral), vehicle: saline
  T/C: 110 % of control
endpoint: median survival time, dose: 128.0 mg/kg/injection, schedule: Q01DX005 (oral), vehicle: Klucel (hydroxypropylcellulose) (HPC)
  T/C: 108 % of control and 106 % of control
endpoint: median survival time, dose: 128.0 mg/kg/injection, schedule: Q01DX009 (oral), vehicle: saline
  T/C: 110 % of control
endpoint: median survival time, dose: 128.0 mg/kg/injection, schedule: Q01DX009 (sc), vehicle: Klucel (hydroxypropylcellulose) (HPC)
  T/C: 197 % of control
endpoint: median survival time, dose: 256.0 mg/kg/injection, schedule: Q01DX005 (oral), vehicle: Klucel (hydroxypropylcellulose) (HPC)
  T/C: 108 % of control
endpoint: median survival time, dose: 256.0 mg/kg/injection, schedule: Q01DX009 (oral), vehicle: saline
  T/C: 112 % of control
endpoint: median survival time, dose: 512.0 mg/kg/injection, schedule: Q01DX009 (oral), vehicle: saline
  T/C: 101 % of control
